In PMC12136788:
The list shows a part of the results.

T1: UNK ZnF1-3 (human, UniProt Q9C0B0 31-174)
T1 sequence: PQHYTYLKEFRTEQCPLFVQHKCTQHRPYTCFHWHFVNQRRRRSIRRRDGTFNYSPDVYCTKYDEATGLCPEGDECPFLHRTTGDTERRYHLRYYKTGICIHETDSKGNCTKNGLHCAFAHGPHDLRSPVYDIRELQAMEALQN

B1: chr1:109605286:109605287:-_ENSG00000197780_ENST00000461096|hu_mus|hu_hu_hu_mus_True|98_108 (ssRNA)
RNA: GGGAGUUCUACAGUCCGACGAUCAAGAACAAUAACAUUCAGUGAUCACCUCUUUAAAUGCAAUUAUCCUUAUUAUAAGCUAAGCAGAAUAAUAAUUUAAUACCGUAAGUGAACUACACACAAAGCCUGAACCGCGAAAAUGGUCAACAGAGGAUUGAGCAUCA
B2: chr11:86935578:86935579:+_ENSMUSG00000020492_ENSMUST00000020794|mus_mus|FALSE|FALSE (ssRNA)
RNA: GGGAGUUCUACAGUCCGACGAUCCUCAUCUGAAAUGCAUCACGAUCCUCUCGGUCAAGGGAAAUGUCAGGCUUCCUCAUCAGCCCCGCCUCUAGACGUCUCGCCCAAUCUCUGCAGUUGGUCUUCUUUCCACCAGCCUUCCUCCAACAGAGGAUUGAGCAUCA
B3: chr1:225611761:225611762:-_ENSG00000143815_ENST00000272163|hu_mus|hu_hu_hu_mus_True|58_78 (ssRNA)
RNA: GGGAGUUCUACAGUCCGACGAUCCCAGGCCAUCGGCCUCUGACCACUUCACCCUCAGCAAAUUUCCUACUUGGCAUUUUCUAUAAUUAGUCUGGCCGCGCUCCGGCGGGAACUCCAGCCACUCCAGGACAGUCACCAGCAGCCCAACAGAGGAUUGAGCAUCA
B4: chr4:62048941:62048942:+_ENSMUSG00000066150_ENSMUST00000084526|mus_mus|motif|central (ssRNA)
RNA: GGGAGUUCUACAGUCCGACGAUCUUGAGACUUUCGAAGCAGACCCUCUCGGGCUAUCUUGAGUCCUUCAUAAAACAUUGCGGGUAAAAACACUGCCACGAAGGCUCCAGCCAUUUCUCCAGGUGUAUUGAUUACCAAACCGGACAACAGAGGAUUGAGCAUCA
B5: chr10:17279496:17279497:+_ENSG00000026025_ENST00000224237|hu_mus|motif|central (ssRNA)
RNA: GGGAGUUCUACAGUCCGACGAUCUUUAAUGGUAUUCAAAAAUACUUUAAAAAGUAUUCUAGCACAAGAUUUCUUCGUAAACGGGAUUAUUUUGUAAACCUUUUCUACGUCUUUUGGGGUGUCAGUUGUUAAGUGCUGAGCUUCCAACAGAGGAUUGAGCAUCA
B6: chr22:19452774:19452775:-_ENSG00000070010_ENST00000399523|hu_hu|hu_hu_hu_mus_False|38_58 (ssRNA)
RNA: GGGAGUUCUACAGUCCGACGAUCCUUCUCAUUGUAGUUGAUAGCAAUCACAUCUCCAGUCGUCAGACAGGCGAAGUUCCUAAGUGCAUUUUCUAAUACGGCUUUGGGGUUGGUAAUAUCCAGGAAGUCUGGGCUCUGAGGCUGCAACAGAGGAUUGAGCAUCA
B7: chrX:130830059:130830060:+_ENSMUSG00000033578_ENSMUST00000037687|mus_hu|FALSE|FALSE (ssRNA)
RNA: GGGAGUUCUACAGUCCGACGAUCGGGCCACAAUAGUUACGGUUCUGGGGGAUGCCAUGGGGUCGCCAAGGCAGGUCCCAACUAAUCCUUCUGAUUUGCGCACCCGCUCUGUCCAAGGUGCAGGCAGUUAGCACAGGGAGAGCUCAACAGAGGAUUGAGCAUCA
B8: chrX:102931257:102931258:-_ENSG00000123562_ENST00000441076|hu_hu|FALSE|FALSE (ssRNA)
RNA: GGGAGUUCUACAGUCCGACGAUCUAAUGCAAGGCUUUUCUCAUCAAGGGGCGUAUAGGCCAACAUUGCUCCAAUUCUUACAAAUAAUCUCAGUAGGUGUGGUGCUCCAUAAACCUGGGACAUUGGAGCAUCAGGGUGAGCCAACAACAGAGGAUUGAGCAUCA
B9: chr7:151640622:151640623:-_ENSMUSG00000031078_ENSMUST00000033407|mus_mus|FALSE|FALSE (ssRNA)
RNA: GGGAGUUCUACAGUCCGACGAUCACCUUUGGAGUAAUCUUUCUGAGACUCAUGCUUCUCCGUCUUGCCCUGGUAGUCAAAGCCCACGGCACUCUUGUCUACACGGUCAGCUUGCACACCGUAUUUGCCACCGAAGCCACUAGACAACAGAGGAUUGAGCAUCA
B10: chr11:13408652:13408653:+_ENSG00000133794_ENST00000403290|hu_hu|FALSE|FALSE (ssRNA)
RNA: GGGAGUUCUACAGUCCGACGAUCGACUUCUUUGUAGUGUAAAAACACCAUACAUCUGAAAUGACCAUUUGCAUAUAAAAGCUACCAAUGAUGCUUCUGUGCACAAUGAUUAAAAAAUUCAACACAAACAGAAUCCAAAAUAUACAACAGAGGAUUGAGCAUCA
B11: chr17:35975164:35975165:-_ENSMUSG00000001525_ENSMUST00000001566|mus_mus|FALSE|FALSE (ssRNA)
RNA: GGGAGUUCUACAGUCCGACGAUCGACCGGAGCCCGGGAGGCUGCAGCAGCGAGAUGCAAGCACGACCGCAGGAAGGUUCUAAGAGGCAGAAGAGGCCGGCGAGCGCAGGAGGGAAGGCGCGCAGGGCGGGGCUCGCGUUCGCGCAACAGAGGAUUGAGCAUCA
B12: chr19:16212804:16212805:+_ENSG00000167460_ENST00000300933|hu_mus|hu_hu_hu_mus_False|18_28 (ssRNA)
RNA: GGGAGUUCUACAGUCCGACGAUCAACAAUUCUGGAGUGAAGGAAAGAUGUAACAUGGAACAGCAUUAAAGCUCAGUCAGAAGGCACAUGGGCAACAAUGAUCACCCCCCAAGCAUUCUACGUUGACCUUAAAGACAAUCUGUUCAACAGAGGAUUGAGCAUCA
B13: chr14:78183846:78183847:+_ENSG00000119705_ENST00000557342|hu_hu|hu_hu_hu_mus_False|88_108 (ssRNA)
RNA: GGGAGUUCUACAGUCCGACGAUCUCUGUCUCAAAAAUCUUCAUCAGCAUCAUCAGAUCCGUGCAAAGCCUUUGCUCUUUGAGCUUGAACGUGGAUCUAUGGGAGGGAAAGCACUGUCAGAAAAGGUAAUUUUUUUUUUAAAGACAACAGAGGAUUGAGCAUCA
B14: chr1:63494365:63494366:+_ENSMUSG00000025964_ENSMUST00000114107|mus_mus|FALSE|FALSE (ssRNA)
RNA: GGGAGUUCUACAGUCCGACGAUCAGGCAGUGUGAUUUCUUUUUGCACUGCACUGCUGUAGCUGGUAUUUCUGCUGCUGCUAUUUUGUUGCAAUGUGUUGUCUUCAUCUGCCAGGACUCCCAGGGUUUUUUCUGCAGUUUCAUUCAACAGAGGAUUGAGCAUCA

The binders below were run against T1, UNK ZnF1-3 (assay: nsRBNS (natural sequence RNA bind-n-seq); RBNS binding buffer (assumed for nsRBNS): 25 mM Tris pH 7.5, 150 mM KCl, 3 mM MgCl2, 0.01% Triton X-100, 500 ug/ml BSA, 20 U/ml SUPERase-In, 4 C; UNK is unkempt and MSI1 is Musashi-1; names of the RNAs are library labels; protein concentration not given here; high values mean tight binding).
B1 showed a binding signal of 1.22 enrichment R. For B2, the binding signal was 0.768 enrichment R. In the case of B3, the binding signal is reported as 1.21 enrichment R. With B4 the binding signal was 0.869 enrichment R. Binder B5 has a binding signal of 0.427 enrichment R. For B6, the binding signal was 1.03 enrichment R. Binder B7 has a binding signal of 0.813 enrichment R. Work on B8 yielded a binding signal of 1.04 enrichment R. With B9 the binding signal was 0.783 enrichment R. With B10 the binding signal was 0.628 enrichment R. B11 was tested, and the binding signal was 1.69 enrichment R. B12 was tested, and the binding signal was 1.3 enrichment R. For B13, the binding signal was 1.78 enrichment R. In the case of B14, the binding signal is reported as 0.221 enrichment R.
